# Laboratory results taken from the supplement of paper PMC9446081.
# The whole screen tested about 39,000 compounds, of which about 220 (0.56%) showed activity. The list shows a part of the results.
# Test system: Escherichia coli K-12 BW25113
# Experiment: relative growth (OD600 normalised to plate interquartile mean) (fraction); higher = less growth inhibition, active = 0.2 or less
# Details: 50 µM; LB; incubation time: overnight (16-24 h)
# 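Also: static incubation at 37 °C against the wild-type strain, values averaged over two biological replicates.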
row,SMILES,relative growth
1,Cc1noc(C)c1NC(=O)Nc1cccc2c1O[C@H](CN(C)Cc1ccc(Oc3ccccc3)cc1)[C@@H](C)CN([C@@H](C)CO)C2=O,inactive: 1.02
2,C=CCNC(=O)[C@H]1CCCN(S(C)(=O)=O)C1,inactive: 1.01
3,C[C@H]1CN([C@@H](C)CO)C(=O)Cc2cc(NS(=O)(=O)c3cn(C)cn3)ccc2O[C@H]1CN(C)Cc1ccc2c(c1)OCO2,inactive: 0.979
4,C[C@@H]1CCCCO[C@H](CN(C)C(=O)c2ccccc2)[C@@H](C)CN([C@@H](C)CO)C(=O)c2cc(NC(=O)C3CCCCC3)ccc2O1,inactive: 1
5,C[C@@H]1CN([C@@H](C)CO)C(=O)Cc2cc(NC(=O)CCN3CCOCC3)ccc2O[C@H]1CN(C)C(=O)NC1CCCCC1,inactive: 1.02
6,COc1c(O)cc2oc3cc(O)c(CC=C(C)C)c(O)c3c(=O)c2c1CC=C(C)C [alpha-MANGOSTIN],inactive: 0.806
7,Cc1ccc(S(=O)(=O)Nc2cccc3c2O[C@H](CN(C)Cc2ccc(C(F)(F)F)cc2)[C@H](C)CN([C@@H](C)CO)C3=O)cc1,inactive: 1.04
8,C[C@H]1CN([C@@H](C)CO)C(=O)CCCn2cc(nn2)CO[C@H]1CN(C)S(=O)(=O)c1cccc(C#N)c1,inactive: 1.02
9,CC(C)NC(=O)N(C)C[C@H]1Oc2ncc(-c3ccc(C(=O)N(C)C)cc3)cc2C(=O)N([C@H](C)CO)C[C@@H]1C,inactive: 0.987
10,O=C(O)c1cn(-c2ccccc2)nn1,inactive: 0.815
11,NC(=O)c1cc[n+](CC2=C(C(=O)[O-])N3C(=O)C(NC(=O)C(c4ccccc4)S(=O)(=O)[O-])C3SC2)cc1.[Na+] (stereo not given),inactive: 1.08
12,C[C@@H]1CCCCO[C@H](CN(C)C(=O)c2ccccc2)[C@@H](C)CN([C@@H](C)CO)C(=O)c2cc(NC(=O)NC3CCCCC3)ccc2O1,inactive: 0.962
13,C[C@@H]1CCCCO[C@@H](CN(C)S(=O)(=O)c2ccccc2)[C@H](C)CN([C@H](C)CO)C(=O)c2cc(NC(=O)Nc3ccc4c(c3)OCO4)ccc2O1,inactive: 0.932
14,CC(C)CC#Cc1ccc2c(c1)O[C@@H](CN(C)C(=O)c1ccncc1)[C@@H](C)CN([C@@H](C)CO)S2(=O)=O,inactive: 0.887
15,C[C@@H]1CN([C@@H](C)CO)S(=O)(=O)c2ccc(C#C[C@@H](C)O)cc2O[C@@H]1CN(C)C(=O)C1CCCCC1,inactive: 1
16,COc1ccc(NC(=O)N(C)C[C@H]2Oc3ccc(NC(=O)CCN4CCOCC4)cc3C(=O)N([C@H](C)CO)C[C@@H]2C)cc1,inactive: 0.984
17,CCCC(NC(C)C(=O)N1C(C(=O)O)CC2CCCCC21)C(=O)O (stereo not given),inactive: 1.02
18,CC(C)NC(=O)N(C)C[C@@H]1OCCCC[C@@H](C)Oc2ccc(NC(=O)Nc3ccccc3)cc2C(=O)N([C@@H](C)CO)C[C@@H]1C,inactive: 0.996
19,C[C@H]1CCCCO[C@@H](CN(C)C(=O)c2ccncc2)[C@@H](C)CN([C@@H](C)CO)C(=O)c2cc(NS(C)(=O)=O)ccc2O1,inactive: 1
20,CCCNC(=O)C[C@@H]1CC[C@@H]2[C@@H](COc3ccc(NS(=O)(=O)c4ccccc4C)cc3C(=O)N2C)O1,inactive: 0.973

row,SMILES,relative growth
1,C[C@@H]1CN([C@@H](C)CO)C(=O)c2cc(NC(=O)Cn3cnnn3)ccc2O[C@H]1CN(C)Cc1ccc(C(F)(F)F)cc1,inactive: 0.945
2,CNC(=O)C[C@H]1CC[C@H]2[C@H](COc3ccc(NC(=O)c4ccc(C(F)(F)F)cc4)cc3C(=O)N2C)O1,inactive: 0.978
3,C[C@H]1CN([C@@H](C)CO)C(=O)c2cccc(NC(=O)c3ccc(-c4nccs4)cc3)c2O[C@@H]1CN(C)Cc1ccc(-c2ccccc2)cc1,inactive: 0.974
4,C[C@@H]1CN([C@H](C)CO)C(=O)c2cc(NC(=O)CCCCCC(=O)Nc3ccccc3N)ccc2O[C@@H]1CN(C)Cc1ccc(Oc2ccccc2)cc1,inactive: 0.936
5,O=C(N[C@H]1CC[C@H](CC(=O)N2CCOCC2)O[C@H]1CO)c1ccc2c(c1)OCO2,inactive: 1.01
6,C[C@@H]1CCCCO[C@H](CN(C)C(=O)NC2CCCCC2)[C@H](C)CN([C@@H](C)CO)C(=O)c2cc(NS(=O)(=O)c3ccc(Cl)cc3)ccc2O1,inactive: 1.03
7,C[C@@H]1CN([C@H](C)CO)C(=O)Cc2cc(NC(=O)Nc3ccc(C(F)(F)F)cc3)ccc2O[C@@H]1CN(C)S(C)(=O)=O,inactive: 0.997
8,Cc1ccc(S(=O)(=O)N(C)C[C@H]2Oc3c(NC(=O)C4CCOCC4)cccc3C(=O)N([C@H](C)CO)C[C@@H]2C)cc1,inactive: 1.01
9,C[C@@H]1CN([C@H](C)CO)C(=O)c2cccc(NC(=O)Nc3ccc(C(F)(F)F)cc3)c2O[C@@H]1CN(C)Cc1ccccc1,inactive: 0.998
10,NCCC(O)C(=O)NC1CC(N)C(OC2OC(CN)C(O)C(O)C2O)C(O)C1OC1OC(CO)C(O)C(N)C1O.O (stereo not given),active: 0.0465
11,C[C@H](CO)N1C[C@H](C)[C@@H](CN(C)S(=O)(=O)c2ccc(Cl)cc2)Oc2ccc(NS(C)(=O)=O)cc2CC1=O,inactive: 1.02
12,O=C1O[C@H](c2ccccc2)[C@H](c2ccccc2)N2[C@H]1[C@@H](C(=O)O)[C@]1(C(=O)Nc3ccc(C#CC4(O)CCCCCC4)cc31)[C@H]2c1ccccc1OCCO,inactive: 0.941
13,COc1ccc(cc1)CN1CC[C@]2(CC1)CN([C@@H](CO)c1[nH]c3cc(ccc3c12)OC)C(=O)Nc1ccc(cc1)F,inactive: 1.02
14,C[C@@H]1CN([C@@H](C)CO)C(=O)c2cc(NC(=O)c3ccncc3)ccc2O[C@@H](C)CCCCO[C@H]1CN(C)C(=O)Nc1ccc(C(F)(F)F)cc1,inactive: 0.995
15,CC(C)NC(=O)N(C)C[C@H]1Oc2ccc(NC(=O)Cn3cnnn3)cc2C(=O)N([C@@H](C)CO)C[C@@H]1C,inactive: 0.991
16,CCOc1ccc(NC(=O)CC(C)O)cc1 (stereo not given),inactive: 0.976
17,C[C@@H]1CN([C@@H](C)CO)C(=O)c2cc(-c3cccnc3)cnc2O[C@@H]1CN(C)C(=O)Nc1ccc2c(c1)OCO2,inactive: 0.975
18,CC[C@@H](C)NCCCCOc1ccc(Cl)cc1C(C)(C)C,inactive: 0.904
19,C[C@H](CO)N1C[C@H](C)[C@@H](CN(C)C(=O)Nc2cccc3ccccc23)Oc2c(NS(=O)(=O)c3ccc(Cl)cc3)cccc2C1=O,inactive: 1
20,C[C@H]1CN([C@@H](C)CO)C(=O)c2cc(NC(=O)CCCCCC(=O)Nc3ccccc3N)ccc2O[C@H]1CN(C)Cc1ccc(C(F)(F)F)cc1,inactive: 1.04

row,SMILES,relative growth
1,Cc1nc2n(c(=O)c1CCN1CCC(c3noc4cc(F)ccc34)CC1)CCCC2O (stereo not given),inactive: 1.11
2,C[C@@H]1CN([C@H](C)CO)C(=O)Cc2cc(NC(=O)CCN3CCOCC3)ccc2O[C@@H]1CN(C)C(=O)Nc1ccc2c(c1)OCO2,inactive: 1
3,CC(C)NC(=O)N(C)C[C@H]1Oc2c(NC(=O)C3CCOCC3)cccc2C(=O)N([C@H](C)CO)C[C@H]1C,inactive: 0.999
4,C[C@H](CO)N1C[C@H](C)[C@@H](CN(C)Cc2ccncc2)Oc2ccc(NC(=O)Nc3ccc(C(F)(F)F)cc3)cc2C1=O,inactive: 0.971
5,Clc1ccc2ncccc2c1,inactive: 0.98
6,O=C(C[C@H]1C=C[C@@H](NC(=O)Nc2cc(F)ccc2F)[C@@H](CO)O1)NCCCN1CCOCC1,inactive: 1.02
7,C[C@@H]1CN([C@H](C)CO)C(=O)c2cc(NC(=O)NC3CCCCC3)ccc2O[C@@H](C)CCCCO[C@H]1CN(C)S(=O)(=O)c1cccs1,inactive: 1.01
8,Cc1cc(O)c(C(C)C)cc1Cl,inactive: 1.01
9,C[C@@H]1CN([C@H](C)CO)C(=O)c2cc(/C=C/c3ccccc3)cnc2O[C@H]1CN(C)C(=O)CN1CCOCC1,inactive: 1
10,C[C@H](CO)N1C[C@H](C)[C@H](CN(C)S(=O)(=O)c2ccccc2)Oc2ccc(NC(=O)C3CC3)cc2C1=O,inactive: 0.982
11,COc1ccc(NC(=O)N(C)C[C@@H]2Oc3c(NS(=O)(=O)c4cn(C)cn4)cccc3C(=O)N([C@H](C)CO)C[C@H]2C)cc1,inactive: 1.01
12,COc1ccc(-c2cnc3c(c2)C(=O)N([C@@H](C)CO)C[C@@H](C)[C@H](CN(C)C(=O)Cc2ccncc2)O3)cc1,inactive: 0.993
13,C/C=C/c1ccc2c(c1)O[C@H](CN(C)Cc1ccc(C(=O)O)cc1)[C@H](C)CN([C@H](C)CO)S2(=O)=O,inactive: 1.01
14,C[C@@H]1CN([C@H](C)CO)C(=O)c2cc(NC(=O)Cc3ccccc3)ccc2O[C@H]1CN(C)Cc1ccc(Cl)c(Cl)c1,inactive: 1.02
15,COc1ccc(S(=O)(=O)N(C)C[C@@H]2Oc3cc(-c4ccccc4OC)ccc3S(=O)(=O)N([C@H](C)CO)C[C@H]2C)cc1,inactive: 1.06
16,C[C@H]1CN([C@@H](C)CO)C(=O)CCCn2nncc2CO[C@H]1CN(C)C(=O)Nc1ccc(C(C)(C)C)cc1,inactive: 1
17,CCOC(=O)[C@H]1[C@@H]2C=C[C@]3(O2)[C@H](C(=O)NCc2ccccc2)N(Cc2cc(OC)cc(OC)c2)C(=O)[C@@H]13,inactive: 0.957
18,Cc1noc(C)c1NC(=O)Nc1ccc2c(c1)CC(=O)N([C@H](C)CO)C[C@@H](C)[C@H](CN(C)S(=O)(=O)c1cccs1)O2,inactive: 0.998
19,C[C@H](CO)N1C[C@H](C)[C@@H](CN(C)S(=O)(=O)c2ccccc2)Oc2ccc(NS(=O)(=O)c3ccc(F)cc3)cc2CC1=O,inactive: 1.04
20,C[C@@H]1CCCCO[C@@H](CN(C)C(=O)Nc2ccc(C(F)(F)F)cc2)[C@H](C)CN([C@@H](C)CO)C(=O)c2cc(NS(=O)(=O)c3ccc(Cl)cc3)ccc2O1,inactive: 0.984
